Molecular target: the molecule itself
Assay: amyloid fibre formation (thioflavin T aggregation assay); self-association into fibres; full-length TFG, same method as for the LCD but in 20 mM Tris (pH 8), 150 mM NaCl instead of PBS

Protein	binding result
Recombinant full-length TRK-fused gene protein (TFG), WT sequence (natural protein, human, TRK-fused gene protein (TFG), human, full length; pet28b+ vector with a His tag, no mCherry; also called full-length TFG) [about 200 residues left out]ASSSSAAHPPGVQPQQPPYTGAQTQAGQIEGQMYQQYQQQAGYGAQQPQAPPQQPQQYGIQYSASYSQQTGPQQPQQFQGYGQQPTSQAPAPAFSGQPQQLPAQPPQQYQASNYPAQTYTAQTSQPTNYTVAPASQPGMAPSQPGAYQPRPGFTSLPGSTMTPPPSGPNPYARNRPPFGQGYTQPGPGYR	binds
Recombinant full-length TFG, P285L (natural protein, TRK-fused gene protein (TFG), human, full length, with the documented pathogenic mutation P285L; pet28b+ vector with a His tag, no mCherry; also called full-length TFG mutant P285L) not shown	binds
Recombinant full-length TFG, G269V (natural protein, TRK-fused gene protein (TFG), human, full length, with the documented pathogenic mutation G269V; pet28b+ vector with a His tag, no mCherry; also called full-length TFG mutant G269V) not shown	binds
